Measurements from patent publication US20250059278A1 (SICHUAN HUIYU PHARMACEUTICAL, published 2025).
One block for each binder: values may come before it.

What was measured:
[1] = target: T1, Human CD3 on Jurkat cells (human, UniProt P07766; P09693; P04234); experiment: cell-based or functional assay
[2] = target: T2, Monkey CD3 on cynomolgus HSC-F cells (cynomolgus monkey, UniProt Q95LI5 22-198; Q95LI7 23-181; Q95LI8 22-171); experiment: flow cytometry on HSC-F cells
T2 construct: whole, on cells; also called Monkey CD3-expressing cynomolgus HSC-F cells; cynomolgus monkey CD3-expressing HSC-F cells
T2 sequence (Q95LI5 22-198, chain 1 of 3): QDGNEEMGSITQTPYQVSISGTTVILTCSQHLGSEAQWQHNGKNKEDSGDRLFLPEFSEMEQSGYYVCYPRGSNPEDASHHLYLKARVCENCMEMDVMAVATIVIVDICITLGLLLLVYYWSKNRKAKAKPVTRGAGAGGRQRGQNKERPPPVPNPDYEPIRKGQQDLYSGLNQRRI
T2 sequence (Q95LI7 23-181, chain 2 of 3, further chain): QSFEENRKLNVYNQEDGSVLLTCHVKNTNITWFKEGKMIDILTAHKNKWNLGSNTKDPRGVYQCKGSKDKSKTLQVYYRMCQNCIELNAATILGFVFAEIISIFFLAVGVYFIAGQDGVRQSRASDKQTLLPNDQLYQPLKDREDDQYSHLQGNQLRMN
T2 sequence (Q95LI8 22-171, chain 3 of 3, further chain): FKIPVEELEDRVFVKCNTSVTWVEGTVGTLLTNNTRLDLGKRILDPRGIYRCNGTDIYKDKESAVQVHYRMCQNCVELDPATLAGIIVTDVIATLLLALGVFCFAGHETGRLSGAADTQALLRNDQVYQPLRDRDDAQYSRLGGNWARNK

[3] = target: T1, Human CD3 on Jurkat cells; experiment: flow cytometry on Jurkat cells
T1 sequence (P07766 23-207, chain 1 of 3): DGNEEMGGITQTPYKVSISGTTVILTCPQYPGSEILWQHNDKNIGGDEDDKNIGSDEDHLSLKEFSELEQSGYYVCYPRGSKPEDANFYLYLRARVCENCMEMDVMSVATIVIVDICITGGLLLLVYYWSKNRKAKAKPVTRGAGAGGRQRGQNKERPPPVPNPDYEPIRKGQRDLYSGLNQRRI
T1 sequence (P09693 23-182, chain 2 of 3, further chain): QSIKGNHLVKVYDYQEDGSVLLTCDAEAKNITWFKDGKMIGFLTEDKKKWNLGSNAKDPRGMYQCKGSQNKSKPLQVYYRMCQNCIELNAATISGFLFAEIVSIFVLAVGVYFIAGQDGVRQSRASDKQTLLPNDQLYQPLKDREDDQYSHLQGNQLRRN
T1 sequence (P04234 22-171, chain 3 of 3, further chain): as the sequence (Q95LI8 22-171, chain 3 of 3, further chain) above, with V5I, K15N, V20I, T32S, N33D, N34I, A64T, N74S, L83V, R141H counted along it

[4] = target: T3, Human CD3εγ recombinant antigen (acrobiosystems, Cat. No. CDG-H52W5) (human, UniProt P07766 23-126; P09693 23-116); experiment: SPR chip (Carterra), antibody captured, antigen in flow
T3 construct: Bought recombinant protein

B3: CD3-MSLN bispecific antibody B39 (bispecific antibody, human IgG1, lambda)
heavy: EVQLVESGGGLVQPGGSLRLSCAASGFTFNTYAMNWVRQAPGKGLEWVARIRSKYNNYATYYADSVKDRFTISRDDSKSSLYLQMNNLKTEDTAMYYCVRHQNFGNSYVSWFQYWGQGTLVTVSSASTKGPSVFPLAPSSKSTSGGTAALGCLVKDYFPEPVTVSWNSGALTSGVHTFPAVLQSSGLYSLSSVVTVPSSSLGTQTYICNVNHKPSNTKVDKKV[letters of human IgG1 Fc with changes omitted]GGGGSGGGGSEVQLVESGGGLVQAGESLRLSCAVSGNIGSIRHMGWHRQDPGKERELVATITTVGTTYYANFVKGRFTISRDNAKNTVYLQMNSLKPEDTGVYYCRATAHPTDYWGQGTQVTVSS
light: [letters of about 100 residues omitted][letters of about 100 residues omitted]
notes: [VH39]-[CH]-[L]-[3C6 VHH] with [VL-1]-[CL]
EC50 [2]: 652 pM
EC50 [3]: 582 pM
Kd [4]: 12000 pM
koff [4]: 0.0052 s⁻¹
kon [4]: 440000 M⁻¹ s⁻¹

B4: CD3-MSLN bispecific antibody B40 (bispecific antibody, human IgG1, lambda)
heavy: EVQLVESGGGLVQPGGSLRLSCAASGFTFNTYAMNWVRQAPGKGLEWVARIRSKYNNYATYYADSVKDRFTISRDDSKSSLYLQMNNLKTEDTAMYYCVRAGNFGNSYVSWFQYWGQGTLVTVSSASTKGPSVFPLAPSSKSTSGGTAALGCLVKDYFPEPVTVSWNSGALTSGVHTFPAVLQSSGLYSLSSVVTVPSSSLGTQTYICNVNHKPSNTKVDKKV[letters of human IgG1 Fc with changes omitted]GGGGSGGGGSEVQLVESGGGLVQAGESLRLSCAVSGNIGSIRHMGWHRQDPGKERELVATITTVGTTYYANFVKGRFTISRDNAKNTVYLQMNSLKPEDTGVYYCRATAHPTDYWGQGTQVTVSS
light: [letters of about 100 residues omitted][letters of about 100 residues omitted]
notes: [VH40]-[CH]-[L]-[3C6 VHH] with [VL-1]-[CL]
EC50 [2]: 639 pM
EC50 [3]: 3770 pM
Kd [4]: 1500 pM
koff [4]: 0.00065 s⁻¹
kon [4]: 430000 M⁻¹ s⁻¹

B5: CD3-MSLN bispecific antibody B45 (bispecific antibody, human IgG1, lambda)
heavy: EVQLVESGGGLVQPGGSLRLSCAASGFTFNTYAMNWVRQAPGKGLEWVARIRSKYNNYATYYADSVKDRFTISRDDSKSSLYLQMNNLKTEDTAMYYCVRHSNFGNSYVSWFQYWGQGTLVTVSSASTKGPSVFPLAPSSKSTSGGTAALGCLVKDYFPEPVTVSWNSGALTSGVHTFPAVLQSSGLYSLSSVVTVPSSSLGTQTYICNVNHKPSNTKVDKKV[letters of human IgG1 Fc with changes omitted]GGGGSGGGGSEVQLVESGGGLVQAGESLRLSCAVSGNIGSIRHMGWHRQDPGKERELVATITTVGTTYYANFVKGRFTISRDNAKNTVYLQMNSLKPEDTGVYYCRATAHPTDYWGQGTQVTVSS
light: [letters of about 100 residues omitted][letters of about 100 residues omitted]
notes: [VH45]-[CH]-[L]-[3C6 VHH] with [VL-1]-[CL]
EC50 [2]: 285 pM
EC50 [3]: 376 pM
Kd [4]: 950 pM
koff [4]: 0.0016 s⁻¹
kon [4]: 1.6e+06 M⁻¹ s⁻¹

B9: CD3-MSLN bispecific antibody B38 (bispecific antibody, human IgG1, lambda)
heavy: EVQLVESGGGLVQPGGSLRLSCAASGFTFNTYAMNWVRQAPGKGLEWVARIRSKYNNYATYYADSVKDRFTISRDDSKSSLYLQMNNLKTEDTAVYYCVRHGNFLNSYVSWFQYWGQGTLVTVSSASTKGPSVFPLAPSSKSTSGGTAALGCLVKDYFPEPVTVSWNSGALTSGVHTFPAVLQSSGLYSLSSVVTVPSSSLGTQTYICNVNHKPSNTKVDKKV[letters of human IgG1 Fc with changes omitted]GGGGSGGGGSEVQLVESGGGLVQAGESLRLSCAVSGNIGSIRHMGWHRQDPGKERELVATITTVGTTYYANFVKGRFTISRDNAKNTVYLQMNSLKPEDTGVYYCRATAHPTDYWGQGTQVTVSS
light: [letters of about 100 residues omitted][letters of about 100 residues omitted]
notes: [VH38]-[CH]-[L]-[3C6 VHH] with [VL-1]-[CL]
EC50 [2]: 257 pM
EC50 [3]: 165 pM
Kd [4]: 1500 pM
koff [4]: 0.0021 s⁻¹
kon [4]: 1.4e+06 M⁻¹ s⁻¹

B11: CD3-MSLN bispecific antibody B44 (bispecific antibody, human IgG1, lambda)
heavy: EVQLVESGGGLVQPGGSLRLSCAASGFTFNTYAMNWVRQAPGKGLEWVARIRSKYNNYATYYADSVKDRFTISRDDSKSSLYLQMNNLKTEDTAMYYCVRHGNFQNSYISWFAYWGQGTLVTVSSASTKGPSVFPLAPSSKSTSGGTAALGCLVKDYFPEPVTVSWNSGALTSGVHTFPAVLQSSGLYSLSSVVTVPSSSLGTQTYICNVNHKPSNTKVDKKV[letters of human IgG1 Fc with changes omitted]GGGGSGGGGSEVQLVESGGGLVQAGESLRLSCAVSGNIGSIRHMGWHRQDPGKERELVATITTVGTTYYANFVKGRFTISRDNAKNTVYLQMNSLKPEDTGVYYCRATAHPTDYWGQGTQVTVSS
light: [letters of about 100 residues omitted][letters of about 100 residues omitted]
notes: [VH44]-[CH]-[L]-[3C6 VHH] with [VL-1]-[CL]
EC50 [2]: 315 pM
EC50 [3]: 1950 pM
Kd [4]: 2600 pM
koff [4]: 0.0029 s⁻¹
kon [4]: 1.1e+06 M⁻¹ s⁻¹

Other lines, results leading:

EC50 (nM), activation of Jurkat-TIGIT-luc cells with MC38/MSLN tumor cells [1]: 0.021 nM
EC50 (nM), activation of T cell activation signaling pathway, Jurkat-TIGIT-luc cells without tumor cells [1]: 0.57 nM
EC50 [2]: 166 pM
EC50 [3]: 248 pM
Kd [4]: 6100 pM
koff [4]: 0.0037 s⁻¹
kon [4]: 610000 M⁻¹ s⁻¹
B1: CD3-MSLN bispecific antibody B8 (bispecific antibody, human IgG1, lambda)
heavy: EVQLVESGGGLVQPGGSLRLSCAASGFTFNTYAMNWVRQAPGKGLEWVARIRSKYNNYATYYADSVKDRFTISRDDSKSSLYLQMNNLKTEDTAMYYCVRHGNFGNTYVSWFAMWGQGTLVTVSSASTKGPSVFPLAPSSKSTSGGTAALGCLVKDYFPEPVTVSWNSGALTSGVHTFPAVLQSSGLYSLSSVVTVPSSSLGTQTYICNVNHKPSNTKVDKKV[letters of human IgG1 Fc with changes omitted]GGGGSGGGGSEVQLVESGGGLVQAGESLRLSCAVSGNIGSIRHMGWHRQDPGKERELVATITTVGTTYYANFVKGRFTISRDNAKNTVYLQMNSLKPEDTGVYYCRATAHPTDYWGQGTQVTVSS
light: [letters of about 100 residues omitted][letters of about 100 residues omitted]
notes: [VH8]-[CH]-[L]-[3C6 VHH] with [VL-1]-[CL]

EC50 [2]: 253 pM
EC50 [3]: 271 pM
Kd [4]: 1500 pM
koff [4]: 0.0017 s⁻¹
kon [4]: 1.2e+06 M⁻¹ s⁻¹
B2: CD3-MSLN bispecific antibody B3 (bispecific antibody, human IgG1, lambda)
heavy: EVQLVESGGGLVQPGGSLRLSCAASGFTFNTYAMNWVRQAPGKGLEWVARIRSKYNNYATYYADSVKDRFTISRDDSKSILYLQMNSLKTEDTAMYYCVRHGNFGNSYVSWFEYWGQGTLVTVSSASTKGPSVFPLAPSSKSTSGGTAALGCLVKDYFPEPVTVSWNSGALTSGVHTFPAVLQSSGLYSLSSVVTVPSSSLGTQTYICNVNHKPSNTKVDKKV[letters of human IgG1 Fc with changes omitted]GGGGSGGGGSEVQLVESGGGLVQAGESLRLSCAVSGNIGSIRHMGWHRQDPGKERELVATITTVGTTYYANFVKGRFTISRDNAKNTVYLQMNSLKPEDTGVYYCRATAHPTDYWGQGTQVTVSS
light: [letters of about 100 residues omitted][letters of about 100 residues omitted]
notes: [VH3]-[CH]-[L]-[3C6 VHH] with [VL-1]-[CL]

EC50 [2]: 204 pM
EC50 [3]: 439 pM
Kd [4]: 1400 pM
koff [4]: 0.0018 s⁻¹
kon [4]: 1.2e+06 M⁻¹ s⁻¹
B6: CD3-MSLN bispecific antibody B42 (bispecific antibody, human IgG1, lambda)
heavy: EVQLVESGGGLVQPGGSLRLSCAASGFTFNTYAMNWVRQAPGKGLEWVARIRSKYNNYATYYADSVKGRFTISRDDSKSSLYLQMNNLKTEDTAMYYCVRHGNFQNSYVSWFQYWGQGTLVTVSSASTKGPSVFPLAPSSKSTSGGTAALGCLVKDYFPEPVTVSWNSGALTSGVHTFPAVLQSSGLYSLSSVVTVPSSSLGTQTYICNVNHKPSNTKVDKKV[letters of human IgG1 Fc with changes omitted]GGGGSGGGGSEVQLVESGGGLVQAGESLRLSCAVSGNIGSIRHMGWHRQDPGKERELVATITTVGTTYYANFVKGRFTISRDNAKNTVYLQMNSLKPEDTGVYYCRATAHPTDYWGQGTQVTVSS
light: [letters of about 100 residues omitted][letters of about 100 residues omitted]
notes: [VH42]-[CH]-[L]-[3C6 VHH] with [VL-1]-[CL]

EC50 [2]: 218 pM
EC50 [3]: 816 pM
Kd [4]: 1400 pM
koff [4]: 0.0025 s⁻¹
kon [4]: 1.8e+06 M⁻¹ s⁻¹
B7: CD3-MSLN bispecific antibody B41 (bispecific antibody, human IgG1, lambda)
heavy: EVQLVESGGGLVQPGGSLRLSCAASGFTFNTYAMNWVRQAPGKGLEWVARIRSKYNNYATYYADSVKGRFTISRDDSKSSLYLQMNNLKTEDTAMYYCVRHSNFQNSYVSWFAYWGQGTLVTVSSASTKGPSVFPLAPSSKSTSGGTAALGCLVKDYFPEPVTVSWNSGALTSGVHTFPAVLQSSGLYSLSSVVTVPSSSLGTQTYICNVNHKPSNTKVDKKV[letters of human IgG1 Fc with changes omitted]GGGGSGGGGSEVQLVESGGGLVQAGESLRLSCAVSGNIGSIRHMGWHRQDPGKERELVATITTVGTTYYANFVKGRFTISRDNAKNTVYLQMNSLKPEDTGVYYCRATAHPTDYWGQGTQVTVSS
light: [letters of about 100 residues omitted][letters of about 100 residues omitted]
notes: [VH41]-[CH]-[L]-[3C6 VHH] with [VL-1]-[CL]

EC50 (nM), activation of Jurkat-TIGIT-luc cells with MC38/MSLN tumor cells [1]: 0.012 nM
EC50 [2]: 247 pM
EC50 [3]: 778 pM
Kd [4]: 5000 pM
koff [4]: 0.00065 s⁻¹
kon [4]: 130000 M⁻¹ s⁻¹
B8: CD3-MSLN bispecific antibody B13 (bispecific antibody, human IgG1, lambda)
heavy: EVQLVESGGGLVQPGGSLRLSCAASGFTFNTYAMNWVRQAPGKGLEWVARIRSKYNNYATYYADSVKGRFTISRDDSKSSLYLQMNSLKTEDTAVYYCVRHGNFKNSYGSWFAYWGQGTLVTVSSASTKGPSVFPLAPSSKSTSGGTAALGCLVKDYFPEPVTVSWNSGALTSGVHTFPAVLQSSGLYSLSSVVTVPSSSLGTQTYICNVNHKPSNTKVDKKV[letters of human IgG1 Fc with changes omitted]GGGGSGGGGSEVQLVESGGGLVQAGESLRLSCAVSGNIGSIRHMGWHRQDPGKERELVATITTVGTTYYANFVKGRFTISRDNAKNTVYLQMNSLKPEDTGVYYCRATAHPTDYWGQGTQVTVSS
light: [letters of about 100 residues omitted][letters of about 100 residues omitted]
notes: [VH13]-[CH]-[L]-[3C6 VHH] with [VL-1]-[CL]

EC50 [2]: 150 pM
EC50 [3]: 202 pM
Kd [4]: 1600 pM
koff [4]: 0.0016 s⁻¹
kon [4]: 1e+06 M⁻¹ s⁻¹
B10: CD3-MSLN bispecific antibody B46 (bispecific antibody, human IgG1, lambda)
heavy: EVQLVESGGGLVQPGGSLRLSCAASGFTFNTYAMNWVRQAPGKGLEWVARIRSKYNNYATYYADSVKDRFTISRDDSKSILYLQMNSLKTEDTAMYYCVRHANFGNSYVSWFASWGQGTLVTVSSASTKGPSVFPLAPSSKSTSGGTAALGCLVKDYFPEPVTVSWNSGALTSGVHTFPAVLQSSGLYSLSSVVTVPSSSLGTQTYICNVNHKPSNTKVDKKV[letters of human IgG1 Fc with changes omitted]GGGGSGGGGSEVQLVESGGGLVQAGESLRLSCAVSGNIGSIRHMGWHRQDPGKERELVATITTVGTTYYANFVKGRFTISRDNAKNTVYLQMNSLKPEDTGVYYCRATAHPTDYWGQGTQVTVSS
light: [letters of about 100 residues omitted][letters of about 100 residues omitted]
notes: [VH46]-[CH]-[L]-[3C6 VHH] with [VL-1]-[CL]
